The other results are listed elsewhere or left out.
Legend:
Experiment in all cases: glycan array binding signal (z-score within array); higher = stronger binding
Settings in all cases: glycan notation: IUPAC condensed, linker removed
[1] = biological target: GlcNAc(b1-3)Gal(b1-4)GlcNAc
Summary of the method: (§1)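 Glycan array data were curated from 3228 arrays in the Consortium for Functional Glycomics database and kept only where the protein sequence was available. Glycan names were converted to IUPAC-condensed notation, and columns mapping to the same glycan were averaged. The binding signal is a within-array Z-score, averaged across arrays of the same protein sequence at different concentrations or buffers and across linkers. Negative Z-scores can be read as non-binding.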

[2] = biological target: GlcNAc(b1-3)Gal(b1-4)GlcNAc(b1-3)Gal(b1-4)GlcNAc
Summary of the method: as §1

GlcNAc(b1-3)GalNAc = biological target: GlcNAc(b1-3)GalNAc
Summary of the method: as §1

[3] = biological target: GlcNAc(b1-3)[GlcNAc(b1-6)]Gal(b1-4)GlcNAc
Summary of the method: as §1

[4] = biological target: GlcNAc(b1-3)[GlcNAc(b1-6)]GalNAc
Summary of the method: as §1

[5] = biological target: GlcNAc(b1-3)[GlcNAc(b1-6)]GlcNAc(b1-4)GlcNAc
Summary of the method: as §1

[6] = biological target: GlcNAc(b1-4)Gal(b1-4)GlcNAc
Summary of the method: as §1

[7] = biological target: GlcNAc(b1-4)GlcNAc(b1-4)GlcNAc
Summary of the method: as §1

[8] = biological target: GlcNAc(b1-4)GlcNAc(b1-4)GlcNAc(b1-4)GlcNAc(b1-4)GlcNAc
Summary of the method: as §1

[9] = biological target: GlcNAc(b1-4)GlcNAc(b1-4)GlcNAc(b1-4)GlcNAc(b1-4)GlcNAc(b1-4)GlcNAc
Summary of the method: as §1

[10] = biological target: GlcNAc(b1-4)[GlcNAc(b1-6)]GalNAc
Summary of the method: as §1

[11] = biological target: GlcNAc(b1-6)Gal(b1-4)GlcNAc
Summary of the method: as §1

GlcNAc(b1-6)GalNAc = biological target: GlcNAc(b1-6)GalNAc
Summary of the method: as §1

Kdn(a2-3)Gal(b1-3)GlcNAc = biological target: Kdn(a2-3)Gal(b1-3)GlcNAc
Summary of the method: as §1

Kdn(a2-3)Gal(b1-4)GlcNAc = biological target: Kdn(a2-3)Gal(b1-4)GlcNAc
Summary of the method: as §1

[12] = biological target: Man(a1-2)Man(a1-2)Man(a1-3)Man
Summary of the method: as §1

[13] = biological target: Man(a1-2)Man(a1-2)Man(a1-6)[Man(a1-3)]Man
Summary of the method: as §1

Man(a1-2)Man(a1-3)Man = biological target: Man(a1-2)Man(a1-3)Man
Summary of the method: as §1

[14] = biological target: Man(a1-2)Man(a1-3)[Man(a1-2)Man(a1-6)]Man
Summary of the method: as §1

[15] = biological target: Man(a1-2)Man(a1-3)[Man(a1-2)Man(a1-6)]Man(a1-6)[Man(a1-2)Man(a1-2)Man(a1-3)]Man(b1-4)GlcNAc(b1-4)GlcNAc
Summary of the method: as §1

[16] = biological target: Man(a1-2)Man(a1-3)[Man(a1-6)]Man(a1-6)[Man(a1-2)Man(a1-3)]Man(b1-4)GlcNAc(b1-4)GlcNAc
Summary of the method: as §1

[17] = biological target: Man(a1-2)Man(a1-6)[Man(a1-3)]Man(a1-6)[Man(a1-2)Man(a1-2)Man(a1-3)]Man(b1-4)GlcNAc(b1-4)GlcNAc
Summary of the method: as §1

Man(a1-3)[Man(a1-6)]Man = biological target: Man(a1-3)[Man(a1-6)]Man
Summary of the method: as §1

[18] = biological target: Man(a1-3)[Man(a1-6)]Man(a1-6)[Man(a1-2)Man(a1-3)]Man(b1-4)GlcNAc(b1-4)GlcNAc
Summary of the method: as §1

[19] = biological target: Man(a1-3)[Man(a1-6)]Man(a1-6)[Man(a1-3)]Man(b1-4)GlcNAc(b1-4)GlcNAc
Summary of the method: as §1

[20] = biological target: Man(a1-3)[Man(a1-6)]Man(b1-4)GlcNAc(b1-4)GlcNAc
Summary of the method: as §1

Man(b1-4)GlcNAc = biological target: Man(b1-4)GlcNAc
Summary of the method: as §1

Neu5Ac(a2-3)Gal = biological target: Neu5Ac(a2-3)Gal
Summary of the method: as §1

[21] = biological target: Neu5Ac(a2-3)Gal(b1-3)GalNAc
Summary of the method: as §1

[22] = biological target: Neu5Ac(a2-3)Gal(b1-3)GalNAc(b1-3)Gal(a1-4)Gal(b1-4)Glc
Summary of the method: as §1

[23] = biological target: Neu5Ac(a2-3)Gal(b1-3)GalNAc(b1-3)Gal(b1-4)GlcNAc
Summary of the method: as §1

[24] = biological target: Neu5Ac(a2-3)Gal(b1-3)GalNAc(b1-4)[Neu5Ac(a2-3)]Gal(b1-4)Glc
Summary of the method: as §1

[25] = biological target: Neu5Ac(a2-3)Gal(b1-3)GalNAc6S
Summary of the method: as §1

[26] = biological target: Neu5Ac(a2-3)Gal(b1-3)GlcNAc
Summary of the method: as §1

[27] = biological target: Neu5Ac(a2-3)Gal(b1-3)GlcNAc6S
Summary of the method: as §1

[28] = biological target: Neu5Ac(a2-3)Gal(b1-3)[Fuc(a1-4)]GlcNAc
Summary of the method: as §1

[29] = biological target: Neu5Ac(a2-3)Gal(b1-3)[Fuc(a1-4)]GlcNAc(b1-3)Gal(b1-4)[Fuc(a1-3)]GlcNAc
Summary of the method: as §1

[30] = biological target: Neu5Ac(a2-3)Gal(b1-3)[Neu5Ac(a2-3)Gal(b1-4)]GlcNAc
Summary of the method: as §1

B1: RSVL (Crotalus atrox), P21963 (protein)
chain: NNCPLDWLPMNGLCYKIFNQLKTWEDAEMFCRKYKPGCHLASFHRYGESLEIAEYISDYHKGQENVWIGLRDKKKDFSWEWTDRSCTDYLTWDKNQPDHYQNKEFCVELVSLTGYRLWNDQVCESKDAFLCQCKF
How did the “glycan array binding signal (z-score)” value [1] turn out when B1 was run?
The value was -0.369.

What about the “glycan array binding signal (z-score)” value [2] of the same binder?
Its value is -0.107.

What about the “glycan array binding signal (z-score)” value (GlcNAc(b1-3)GalNAc) of the same binder?
Its value is -0.368.

And the “glycan array binding signal (z-score)” value [3]?
Its value is -0.369.

And the “glycan array binding signal (z-score)” value [4]?
Its value is -0.368.

And the “glycan array binding signal (z-score)” value [5]?
Its value is -0.361.

And the “glycan array binding signal (z-score)” value [6]?
The value was -0.369.

And the “glycan array binding signal (z-score)” value [7]?
The value was -0.369.

And the “glycan array binding signal (z-score)” value [8]?
The value was -0.327.

And the “glycan array binding signal (z-score)” value [9]?
The value was -0.369.

And the “glycan array binding signal (z-score)” value [10]?
The value was -0.369.

What about the “glycan array binding signal (z-score)” value [11] of the same binder?
Its value is 0.382.

What about the “glycan array binding signal (z-score)” value (GlcNAc(b1-6)GalNAc) of the same binder?
Its value is 1.02.

And the “glycan array binding signal (z-score)” value (Kdn(a2-3)Gal(b1-3)GlcNAc)?
Its value is -0.345.

And the “glycan array binding signal (z-score)” value (Kdn(a2-3)Gal(b1-4)GlcNAc)?
Its value is -0.366.

What about the “glycan array binding signal (z-score)” value [12] of the same binder?
The value was -0.367.

And the “glycan array binding signal (z-score)” value [13]?
The value was -0.366.

What about the “glycan array binding signal (z-score)” value (Man(a1-2)Man(a1-3)Man) of the same binder?
The value was -0.369.

What about the “glycan array binding signal (z-score)” value [14] of the same binder?
Its value is -0.367.

What about the “glycan array binding signal (z-score)” value [15] of the same binder?
Its value is -0.358.

What about the “glycan array binding signal (z-score)” value [16] of the same binder?
The value was -0.365.

And the “glycan array binding signal (z-score)” value [17]?
Its value is -0.366.

And the “glycan array binding signal (z-score)” value (Man(a1-3)[Man(a1-6)]Man)?
The value was -0.359.

What about the “glycan array binding signal (z-score)” value [18] of the same binder?
Its value is -0.367.

What about the “glycan array binding signal (z-score)” value [19] of the same binder?
The value was -0.367.

And the “glycan array binding signal (z-score)” value [20]?
The value was -0.363.

And the “glycan array binding signal (z-score)” value (Man(b1-4)GlcNAc)?
The value was -0.365.

What about the “glycan array binding signal (z-score)” value (Neu5Ac(a2-3)Gal) of the same binder?
Its value is -0.126.

What about the “glycan array binding signal (z-score)” value [21] of the same binder?
Its value is -0.37.

What about the “glycan array binding signal (z-score)” value [22] of the same binder?
The value was -0.368.

And the “glycan array binding signal (z-score)” value [23]?
Its value is -0.35.

What about the “glycan array binding signal (z-score)” value [24] of the same binder?
The value was -0.237.

What about the “glycan array binding signal (z-score)” value [25] of the same binder?
The value was -0.363.

And the “glycan array binding signal (z-score)” value [26]?
The value was -0.362.

And the “glycan array binding signal (z-score)” value [27]?
Its value is -0.367.

And the “glycan array binding signal (z-score)” value [28]?
The value was -0.349.

And the “glycan array binding signal (z-score)” value [29]?
The value was -0.361.

What about the “glycan array binding signal (z-score)” value [30] of the same binder?
The value was -0.368.

Source: the supplement of paper PMC8728848
